From ChEMBL document CHEMBL1201862, “PubChem BioAssay data set” (2004) come the findings set out here.

SMILES strings stand for the structures.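 Results reflect a 48-hour exposure of cells in 96-well plates to compound at five concentrations. GI50 = concentration required for 50% inhibition of growth.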 Calls of active or inactive are those of the source. No stated cut-off is given here; in the data, active = GI50 up to about 1.1 µM and inactive = higher.

The test system of this assay is NCI-H322M. Briefly: DTP human tumour cell line panel, 48 h.
Broadly, the GI50 is the concentration giving 50% growth inhibition. For `Nc1nc(N)c(N=Nc2ccc([As](=O)(O)O)c(O)c2)c(N)n1`, the GI50 was inactive: > 78.3 µM.
With `O=C(O)Cn1cnc2c(O)nc(Nc3ccccc3)nc21` the figure was inactive: > 100 µM.
The same measure for `CN(C)CCn1c(=O)c2ccc3c4c(nn3CCN(C)C)c3ccccc3n(c1=O)c24`: active: < 0.124 µM; for `C[C@]12CC[C@@H]3c4ccc(O)cc4CC[C@H]3[C@@H]1C/C(=C\c1ccc(C#N)cc1)C2=O`: inactive: 48.4 µM.
With `C=CCCCCCC(O)C(O)C/C=C\C/C=C\CC` (configuration not stated) the figure was inactive: > 18.8 µM; with `CC(=O)Oc1ccc2c(c1)Oc1cc(C(C)=O)ccc1C21OC(=O)c2ccccc21` (configuration not stated), inactive: > 100 µM.
As to `Cc1nc2ccc(S(=O)(=O)O)cc2c(=O)n1-c1ccc(C(=O)NN2C(=O)C(Cl)C2c2cccs2)cc1` (configuration not stated), the GI50 was inactive: > 100 µM.
With `CCCc1c(-c2ccccc2)[nH]c2ccccc2c1=O` the figure was inactive: 82.8 µM.
For `Cc1ccc(C(=O)c2[nH]c(Nc3cc(C)ccn3)c(C(=S)Nc3ccccc3)c2N)cc1`, the GI50 was inactive: > 100 µM.
With `Cc1cccc(C)c1NC(=O)C(=O)CC(=O)CO` the figure was inactive: > 100 µM; with `O=C1/C(=C/c2ccccc2)CN(C(=O)CCN2CCCC2)C/C1=C\c1ccccc1`, inactive: 2.33 µM; with `CCCCCCCCCc1cc(-c2ccc(C=O)s2)sc1-c1ccc(C=O)s1`, inactive: 54.7 µM.
With `CCN(CC)CC(=O)Nc1c(C(N)=O)nnn1Cc1cc(Cl)c(C(=O)c2ccc(Cl)cc2)c(Cl)c1` the figure was inactive: 32.1 µM.
As to `[N-]=[N+]=Nc1ccccc1-c1ccccc1[N+](=O)[O-]`, the GI50 is inactive: > 100 µM.
With `N#C/C(c1nc2ccccc2[nH]1)=c1\s/c(=C/c2ccc(Cl)cc2)c(=O)n1-c1ccccc1`, the GI50 was inactive: > 100 µM.
The same measure for `CC1(C)C(=O)C(C)(C)C1=NN`: inactive: > 100 µM; for `Cc1c(CN)c(C)c(CN)c(C)c1CN`: inactive: > 100 µM.
The same measure for `CCOP(=O)(OCC)C(C(=O)OC)C(=O)C(=O)Nc1c(C)cc(Br)cc1C` (configuration not stated): inactive: > 100 µM.
Take `COC(=O)C1=C(CO)C2C=CC1C2` (configuration not stated): the GI50 is inactive: > 100 µM.
In the case of `CC1(CF)SCc2nc3ccccc3n21` (configuration not stated), the GI50 is inactive: > 100 µM.
With `Cn1nc(S(N)(=O)=O)s/c1=N/C(N)=S` the figure was inactive: > 100 µM.
With `c1ccc(COC2NCCN2Cc2ccccc2)cc1` (configuration not stated) the figure was inactive: > 100 µM; with `COc1ccc2c(c1O)[C@@]13CCCC=C1[C@@H](C2)N(C)CC3`, inactive: > 100 µM.
As for `O=C1c2ccccc2-c2ccc(NC(=O)C3CCCCC3C(=O)O)cc21` (configuration not stated), the GI50 is inactive: > 100 µM.
The same measure for `CCO/C=C1\N=C(C(Cl)c2ccccc2)OC1=O` (configuration not stated): inactive: > 100 µM.
The same measure for `CN(C)CCNC(=O)C1COc2cc(-c3cc(=O)c4ccccc4o3)ccc2O1` (configuration not stated): inactive: 20.7 µM.
Regarding `Cc1nc2c(cc1OCc1ccccc1)C(=O)C1=C(C2=O)C2OC(=O)CC2OC1(C)C` (configuration not stated), the GI50 was inactive: 2.07 µM.
Consider `CCOC(=O)/C(=C/NC(=S)Nc1c(CC)cccc1C(C)(C)C)C(=O)c1ccccc1`, for which the GI50 is inactive: > 100 µM.
With `O=C(O/N=c1/ccc(=O)/c(=N\OC(=O)c2ccccc2)c1=O)c1ccccc1` the figure was inactive: > 100 µM; with `COc1ccc(Nc2nc3ccc(C(F)(F)F)cc3nc2-c2ccccc2)cc1OC`, inactive: 96.6 µM; with `O=[N+]([O-])c1ccc(Cl)cc1-n1nc(-c2ccccc2)cc1-c1ccccc1`, inactive: > 100 µM.
Consider `Cc1cc(N(CCC#N)CCC#N)ccc1C(=N/NC(=O)c1cc(Cl)ccc1O)/N=N/c1cccc(Cl)c1`, for which the GI50 was inactive: 12.1 µM.
The same measure for `CCOC(=O)c1c2cccccc2n2c(=O)cc(C)nc12`: inactive: > 100 µM.
The same measure for `Cc1ccc(S(=O)(=O)NNC2(NS(=O)(=O)c3ccc(Cl)cc3)C(Cl)=C(Cl)C(=O)c3ccccc32)cc1` (configuration not stated): inactive: 16.7 µM; for `COc1cc(C2=NNC(=O)c3ccccc3N2c2nc(-c3cccs3)nc3ccc(Br)cc23)cc(OC)c1OC`: inactive: 18.2 µM.
Consider `COCn1cnc2c(=O)nc(SC)n(-c3ccccc3)c21`, for which the GI50 is inactive: > 100 µM.
As for `COc1ccc(C2S/C(=C\c3cc(OC)c(OC)c(OC)c3)C(=O)N2NC(=O)Cc2ccccc2)cc1` (configuration not stated), the GI50 is inactive: > 100 µM.
The same measure for `COc1ccc(-c2cc(-c3cc4cc(Br)ccc4nc3Cl)c(C#N)c(N)n2)cc1`: inactive: > 12.5 µM; for `CCOC(=O)c1c(C)nc2c(c1-c1cn(-c3ccccc3)nc1-c1ccccc1)C(=O)c1ccccc1-2`: inactive: > 100 µM.
The same measure for `Cc1cc(NS(=O)(=O)c2ccc(NC(=O)c3cccc4c(NNc5ccc(S(N)(=O)=O)cc5)c5ccccc5nc34)cc2)no1`: inactive: 51.4 µM; for `[O-][S+](c1ccc(O)cc1)c1ccc(O)cc1`: inactive: > 100 µM.
With `O=C(C#Cc1ccccc1)NC/C=C/c1ccccc1` the figure was inactive: 40.6 µM; with `CCCCCCCC(=O)OCC1OC(n2cc(F)c(=O)[nH]c2=O)C(N)C(O)C1O` (configuration not stated), inactive: > 100 µM; with `CNC(=S)N/N=C(/C)CCC/C(C)=N/NC(=S)NC`, inactive: > 100 µM.
Regarding `CC1CCC2(OC1)OC1CC3C4CC=C5CC(OC6OC(CO)C(OC7OC(C)C(OC8OC(C)C(O)C(O)C8O)C(O)C7O)C(O)C6OC6OC(C)C(O)C(O)C6O)CCC5(C)C4CCC3(C)C1C2C` (configuration not stated), the GI50 was active: 0.431 µM.
On to `O=C(O)/C=C/c1ccc2c(c1)CC1(Cc3ccccc3C1)C2`, for which the GI50 is inactive: > 100 µM.
The same measure for `COC(=O)[C@@H]1C2OC(C)(C)OC2CN1C(=O)OCc1ccccc1` (some centres not stated): inactive: > 100 µM.
With `Cc1ccc(NC(=O)C(=O)C(C#N)c2nc(-c3ccc(-c4ccccc4)cc3)cs2)c(C)c1` (configuration not stated) the figure was inactive: > 100 µM.
With `C/C(=C\COP(=O)(O)CP(=O)(O)O)CC/C=C(\C)CNc1ccccc1` the figure was inactive: > 100 µM; with `Cc1c(Cl)ccc2c1NC(=O)C2(O)CC(=O)c1ccc(Cl)cc1Cl` (configuration not stated), inactive: > 50 µM.
`c1cc(-c2ccsc2-c2ccsc2)cs1`: the GI50 is inactive: > 100 µM.
The same measure for `Clc1cc(Cl)c2n[se]nc2c1`: inactive: > 100 µM.
With `CN(C)c1nc(N(C)C)nc(N(C)CN(C)c2ccccc2)n1` the figure was inactive: > 100 µM.
With `COc1ccccc1NC(=O)C(=O)C(C(=O)c1ccccc1F)C1OC(=O)c2ccccc21` (configuration not stated) the figure was inactive: 25.2 µM; with `CCC/C=C/C=C\C(=O)O[C@@H]1[C@@H](C)[C@]2(O)[C@@H]3C=C(C)C(=O)[C@H]3CC(COC(C)=O)=C[C@H]2[C@@H]2C(C)(C)[C@]12OC(C)=O`, inactive: 33.3 µM; with `OC[C@H]1O[C@@H]2O[C@@](COCc3ccccc3)([C@H](OCc3ccccc3)[C@H]2O)[C@@H]1OCc1ccccc1`, inactive: 13.6 µM.
On to `C=CCNC(NCC=C)=C(C(Cl)=C(Cl)Cl)[N+](=O)[O-]`, for which the GI50 is inactive: > 100 µM.
With `Cc1ccc(NC(=O)CC(=O)N2N=C(N(CCC#N)c3cccc(C)c3)CC2c2ccccc2)cc1` (configuration not stated), the GI50 was inactive: > 100 µM.
With `COc1cc2c(cc1OC)[C@H](C)N1CCc3cc(OC)c(OC)cc3[C@@H]1C2` the figure was inactive: > 100 µM; with `CCOC(=O)NC(NC(C)CC)(C(F)(F)F)C(F)(F)F` (configuration not stated), inactive: > 100 µM; with `COc1cccc(/C(C=O)=C(\Cl)c2ccc(OC)c(OC)c2)c1`, inactive: 15.3 µM.
With `CC(=O)C(=CNc1c(C)n(C)n(-c2ccccc2)c1=O)C(C)=O` the figure was inactive: > 100 µM; with `O=C1/C(=N\O)C2CCC1C2` (configuration not stated), inactive: > 100 µM.
The same measure for `O=C1N(CN2CCOCC2)CN(CN2CCOCC2)C(=O)N1Cc1ccc(CN2C(=O)N(CN3CCOCC3)CN(CN3CCOCC3)C2=O)cc1`: inactive: > 100 µM.
In the case of `Clc1ccc(Cn2cc(/C=N/n3cnnc3)c3ccccc32)cc1`, the GI50 was inactive: 49.4 µM.
The same measure for `CC(=O)Oc1ccc(OC(Oc2ccccc2)c2ccccc2)cc1` (configuration not stated): inactive: 37.3 µM; for `Cc1ccc(S(=O)(=O)Nn2c(O)c(C#N)c(-c3ccc(Cl)cc3)c(C#N)c2=O)cc1`: inactive: > 100 µM; for `O=C(O)C12CCCC(CCC1)C2`: inactive: > 100 µM.
The same measure for `Cc1cc2[nH]c3c(C#N)c(-c4ccccc4)c(/C=N/c4ccc(F)cc4)c(=O)n3c2cc1C`: inactive: > 100 µM.
With `O=c1nc(/C=C/c2ccccc2Cl)cc2n1CCN2CCO` the figure was inactive: 43.1 µM.
Consider `N#CC(NNC(=O)c1ccccc1O)c1ccccc1` (configuration not stated), for which the GI50 is inactive: 5.21 µM.
As to `O=C(NC(O)(C(F)(F)F)C(F)(F)F)c1ccccc1`, the GI50 is inactive: > 100 µM.
With `CCN1CCCC(Nc2cc(C)nc(NC(=N)Nc3ccc(Cl)c(Cl)c3)n2)C1` (configuration not stated) the figure was inactive: 1.53 µM; with `O=c1[nH][nH]c(=S)c(=O)[nH]1`, inactive: > 100 µM; with `COC(=O)C1C=CCON2CCc3c(n(C)c4ccccc34)C12` (configuration not stated), inactive: > 100 µM.
With `OC(c1ccc(Cl)cc1)(c1ccc(Cl)cc1)c1cncnc1` the figure was inactive: 16.6 µM; with `Cc1ccc2c(O)cc(-c3ccc(F)cc3)nc2n1`, inactive: 39 µM; with `c1cc(-c2ccc(-c3nc4ccc(C5=NCCN5)cc4s3)s2)ccc1C1=NCCN1`, active: 0.344 µM.
The same measure for `Cc1ncc([N+](=O)[O-])n1CCNC(=O)CCCCn1ccnc1[N+](=O)[O-]`: inactive: 99.8 µM.
Consider `Cc1c2cc[n+](C)cc2c(C)c2c1[nH]c1ccc(OCC(F)(F)F)cc12`, for which the GI50 was inactive: 4.84 µM.
With `c1ccc2c(c1)nc1n2CCNC1` the figure was inactive: > 100 µM.
With `O=c1c(C(c2cc(OCc3ccccc3)cc(OCc3ccccc3)c2)c2c(O)oc3ccccc3c2=O)c(O)oc2ccccc12` the figure was inactive: 9.66 µM.
